B1: CPEB3 Ribozyme (parent)
chain: UAACAGGGGGCCACAGCAGAAGCGUUCACGUCGCAGCCCCUGUCAGAUUCUGGUGAAUCUGCGAAUUCUGCUGUAUAUCUC

The source gives no read counts; variants with many changes may rest on few reads.

The variants in the series derive from B1. Put plainly: self-cleavage, relative activity (ratio to wild type); higher = more cleavage; in vitro, sequencing. Summed up: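 For each CPEB3 ribozyme variant, relative activity is its cleaved/total read fraction divided by the unmutated ribozyme's. Barcoded error-prone PCR libraries were transcribed by T7 RNA polymerase (5 hours, 37°C) and held in DNase I for 15 min before an EDTA stop, with cleavage occurring throughout. Template-switching reverse transcription and Illumina sequencing were used to read the RNAs. A 5-read minimum applied, and results are the mean of three batches.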
Take C32U U41A U48C U58C C79U: the self-cleavage came to 0.07. C32A A47G U48C G73C: the self-cleavage came to 0.24. Consider C32U A35G C39A A64G U69C U72C U78C, for which the self-cleavage came to 0.04. Take C32A U41C A45C: the self-cleavage amounted to 0.16. The value for C32U A35G G36A was 0.41; that for G33A A77G U80A was 0.21. For the variant G33A A47G U51C A65G, the self-cleavage is 0.08.

Consider C32U A47C U72A, for which the self-cleavage was found to be 0.11. Regarding C32U A56G A57U A64G, the self-cleavage amounted to 0.12. For C32U G36C A45U U66C, the self-cleavage is 0.11. The value for C32U U54A U58C was 0.19. The value for G33A A47G U74C was 0.42; that for C32U A35C G63A U67C A75U was 0.12; that for G33A A47G G52A U60A G63U was 0.13.

As to C32U A56G U72C, the self-cleavage stood at 0.17. As to C32U A56G U72A, the self-cleavage stood at 0.14. Then C32A A57G U80A, with 0.1.

As for C32A C50U U51G, the self-cleavage is 0.23. Turning to C32A U43C U54C, the self-cleavage is 0.15. For C32U A45G U66C, the self-cleavage stood at 0.3.

For the variant C32A A56G G70A U74C, the self-cleavage is 0.16. The value for C32A U41C A65G G73C was 0.27; that for G33A A35G U51C was 0.5. The value for C32U A56C U66C U72C was 0.08. As for G33A A45U A56G, the self-cleavage is 0.17. Then C32A C37A U54G U58A C71G, with 0.06; and G33A C37G U48C, with 0.07. Regarding C32A U41A U66C, the self-cleavage amounted to 0.21. Then C32U A35G U72G, with 0.09. For C32G U54C U76C U80C, the self-cleavage amounted to 0.11. For the variant C32G U51C A56G U80A, the self-cleavage was 0.08. Then C32A A64U A65G, with 0.12; and C32U C34U U69A, with 0.36; and C32U A47U U78A, with 0.18. Regarding C32A C38G U41A, the self-cleavage came out at 0.3. C32A U54A U69A: the self-cleavage was found to be 0.17.

For the variant G33A A47G C71G, the self-cleavage turned out to be 0.19. Then C32A C38U U51C, with 0.3; and C32U U51C A77G, with 0.19. Take C32G G36A A45G A47U U51A U69A: the self-cleavage turned out to be 0.12.

Turning to C32U U48C U54A U67A, the self-cleavage came to 0.12. Take C32G A64G U74C: the self-cleavage was 0.15.

In the case of G33A A35U U41A U60G, the self-cleavage is 0.16. The value for C32U A47G U51G was 0.58; that for G33A A35G U49C A57U U80C was 0.01.

As for C32U U41C C62G U72C, the self-cleavage was 0.19. The value for C32U U48C U66C U69A was 0.21. Regarding C32A A56G U74C, the self-cleavage amounted to 0.22. Regarding C32G U74C U78C, the self-cleavage stood at 0.14.

On to C32A A35U A56G U69C A77G, for which the self-cleavage turned out to be 0.05. Then G33A A65G U67C U69C, with 0.16; and C32A A45G U66C, with 0.16.

For C32A U51C U72C, the self-cleavage stood at 0.08. Turning to C32U C40U U67G, the self-cleavage came out at 0.13. Then C32U U60A U69C, with 0.12.

In the case of C32A A45U U49C, the self-cleavage came to 0.2. On to C32A U41G A57G, for which the self-cleavage was 0.07.

Regarding C32U A56U U72A, the self-cleavage was 0.14. The value for G33A A35U U41C U69G was 0.08.

As for C32U G46A U78A, the self-cleavage turned out to be 0.19.

Turning to C32U A65G U72A, the self-cleavage is 0.06. Turning to C32U C40A A64G, the self-cleavage was found to be 0.12. Take G33A A35G U41A A77U: the self-cleavage is 0.36. Then C32U U48C C62A A64G, with 0.08; and C32U U72C U74C, with 0.27; and C32A U41C C62A, with 0.09.

Consider C32A U41A C50U U51G U60C U67C, for which the self-cleavage came to 0.05. Turning to C32A U41C G63A, the self-cleavage stood at 0.3. As for C32A U49C U54A U72C, the self-cleavage worked out at 0.12.

On to C32G U41G U69A U80A, for which the self-cleavage was 0.15. Regarding G33A A35C A65G U74A, the self-cleavage turned out to be 0.07. The value for C32U U43G A75G U76C was 0.12. The value for C32A C34A A45U was 0.23.

C32U A64U U67C: the self-cleavage was 0.15. Then C32G G73A U78A, with 0.07; and C32A A45U U80C, with 0.19; and C32A U51C A56G U69C C71U, with 0.06. Then G33A A57G A75U U78C, with 0.42. Then G33A A45U U69A, with 0.17; and C32A U41C A75G U78C, with 0.08.

On to C32A A45U U51C, for which the self-cleavage turned out to be 0.12. U31G U69A U80C: the self-cleavage stood at 0.28. As for C32U G36U C50A U66C, the self-cleavage was 0.12. Then C32A G61C U78C, with 0.13; and C32U U58C U67C U69C C81U, with 0.15. Then C32U U43A A45G G55U, with 0.17; and C32A G46U U66C, with 0.15; and C32U C34G G61A, with 0.07.

Take C32U U43G U66C U76C: the self-cleavage is 0.07. Turning to G33A A35G A64U, the self-cleavage amounted to 0.11. For the variant C32U U49C U60C U74A A77G, the self-cleavage stood at 0.2. Consider C32G U54C G63A, for which the self-cleavage is 0.15. On to C32A U60C A64G, for which the self-cleavage amounted to 0.1. Consider C32U U41C U43C A56U A57G, for which the self-cleavage worked out at 0.16. The value for C32A U58C A64G was 0.09; that for C32A U43C G52A U78A was 0.08. For the variant G33A A35G U43C U51A U60C A64G, the self-cleavage was 0.08. The value for C32U A35U U41A A45U A65G U67C was 0.07. Turning to G33A A47G U48C U66C, the self-cleavage came out at 0.12. Then C32U U54C U58C, with 0.34; and C32G U48C C81U, with 0.17; and C32U C34U U74G, with 0.24. The value for C32A A56U U78C was 0.5; that for C32G U41A A47U A56G A57G U67A was 0.05; that for C32G U41A U69C was 0.27. Then C32A C38A U51C A56U, with 0.22; and C32U A56G U60A, with 0.31. Regarding G33A A45G U48A A64G, the self-cleavage worked out at 0.15. Then C32U C37A U43A U72A, with 0.07; and C32A A35G A64U U67C, with 0.4; and C32U U60C U69C U72A G73C U74A, with 0.04. The value for C32G A47U U72C A75G was 0.09; that for C32A U41A U69A was 0.08; that for C32U U48G U54C was 0.13. For the variant C32U C71U A75G U80C, the self-cleavage was 0.11.

For the variant G33A A35C U43A A56U U72C, the self-cleavage turned out to be 0.08.

Take G33A A47U U54C A57G U72C: the self-cleavage was found to be 0.08. In the case of C32G C37G A57U U66A, the self-cleavage turned out to be 0.06.

C32U U58C U78A: the self-cleavage stood at 0.15. Then G33A C34U A47G U49C U60G U72C, with 0.07; and C32A U43A U66C U74C, with 0.09; and C32A U41C U43C U78A U80C, with 0.09.

As to C32A U51A U72A, the self-cleavage is 0.11. For the variant C32A U48C U54C U58C U67C U72A, the self-cleavage was found to be 0.21. As to G33A A45U U54C, the self-cleavage is 0.15. Consider G33A A47G A77G, for which the self-cleavage worked out at 0.41.

On to G33A A47G A77U, for which the self-cleavage amounted to 0.38. Then C32G G52A A56G, with 0.1; and C32U A45G A64U U72A, with 0.08; and G33A A56G U67C, with 0.07.

G33A A35U A64G: the self-cleavage was determined as 0.23. The value for C32U G46A U51C was 0.16; that for C32U G36A C40A G53C was 0.07. Then C32U A35G A45U A56G, with 0.13.

Take G33A A47G U49C U60C: the self-cleavage was 0.39. With G33A A35G G42A A47G U48C U51C, the self-cleavage is 0.05.

On to C32U U48C C68G, for which the self-cleavage came out at 0.14. Then C32A A56U U76C, with 0.5; and C32G G46A A56G C59U, with 0.07; and G33A A47G A57G A64G, with 0.06. The value for G33A A47G A57U was 0.07.

C32G U41C A57U A65C: the self-cleavage amounted to 0.08. Then C32U A45G C68U, with 0.23; and C32U U49C C68U, with 0.05; and C32A U43A A57G U60C A65G U66C U69C, with 0.1. Then C32U U48C C68G U69C U76C, with 0.12. Then C32A U48C U58G, with 0.17. Take C32A U69A C81A: the self-cleavage worked out at 0.06.

Regarding C32A U49C U74C U80C, the self-cleavage was found to be 0.06. For the variant C32A U54A U80A, the self-cleavage came out at 0.24. Turning to C32G U41A U60A U67A C81U, the self-cleavage came out at 0.16. With C32U U43C U72C, the self-cleavage stood at 0.12. Regarding C32U U49A A64U U66C, the self-cleavage worked out at 0.1. Then C32A U43A U66C, with 0.28; and C32U C38A A65U, with 0.11. The value for C32U A47G U72A A77U was 0.05. C32U U49A C71U: the self-cleavage worked out at 0.13. C32U U41C U51C A75G U76C: the self-cleavage turned out to be 0.25.

For the variant C32U U51G A56G, the self-cleavage is 0.2. As for G33A A35G U67C U76C, the self-cleavage was determined as 0.33. On to C32U A35G A77U C79U, for which the self-cleavage came out at 0.59. The value for C32A U69C U74C was 0.1; that for C32U U41A U69A U74A U78C was 0.06. As for C32A U41G U51C G63A A65G U74A, the self-cleavage came to 0.15. In the case of C32A U48C U78C, the self-cleavage stood at 0.22. Regarding C32A A64G U66C, the self-cleavage was 0.19.

Regarding C32U U48A A56G, the self-cleavage came out at 0.11.
